Measured values taken from PubChem BioAssay (NCATS).
This list was built around the results that the source calls inconclusive (neither active nor inactive); the mix of calls is not that of the screen. For some of these results: Potencies of inconclusive entries are doubtful fits and often do not repeat. The source made the active and inactive calls. Calls come from the whole dose curve; as a rule, active = well fitted cell-killing curve with a large enough effect; inconclusive = small, poorly fitted or top-dose-only effect, or effect the other way; inactive = flat fitted curve, though single readings scatter.

Assays:
Assay in all cases: Primary qHTS to identify gynecologic anti-cancer compounds using libraries of approved drugs and bioactive compounds (AID 1345084); note: nearly all actives have a fitted effect of over 55% in size
C33A = settings: Gynecologic cancer cell panel viability, ATPlite luminescence, 48 h; series mostly up to 57.5 µM
Summary of the method: (§1)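 Cells, 1,000 per well, were allowed to settle for 16 h at 37 C before compound addition. Five concentrations were tested for 48 h, and viability was read by ATPlite luminescence after 15 min at room temperature.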

CAOV3 = settings: Gynecologic cancer cell panel viability, ATPlite luminescence, 48 h; series mostly up to 57.5 µM
Summary of the method: as §1

CASKI = settings: Gynecologic cancer cell panel viability, ATPlite luminescence, 48 h; series mostly up to 57.5 µM
Summary of the method: as §1

Es-2 = settings: Gynecologic cancer cell panel viability, ATPlite luminescence, 48 h; series mostly up to 57.5 µM
Summary of the method: as §1

Hek293T = settings: Gynecologic cancer cell panel viability, ATPlite luminescence, 48 h, control line for the selectivity index; series mostly up to 57.5 µM
Summary of the method: as §1

JEG-3 = settings: Gynecologic cancer cell panel viability, ATPlite luminescence, 48 h; series mostly up to 57.5 µM
Summary of the method: as §1

OV90 = settings: Gynecologic cancer cell panel viability, ATPlite luminescence, 48 h; series mostly up to 57.5 µM
Summary of the method: as §1

HeLa = settings: Gynecologic cancer cell panel viability, ATPlite luminescence, 48 h; series mostly up to 57.5 µM
Summary of the method: as §1
Potency is the fitted concentration of half-maximal effect; tags give direction and shape of the fitted curve.

## C[C@H]1O[C@@H](O[C@H]2CC[C@]3(CO)C4CC[C@]5(C)[C@@H](C6=CC(=O)OC6)CC[C@]5(O)[C@@H]4CC[C@H]3C2)[C@H](O)[C@H](O)[C@@H]1O[C@@H]1O[C@H](CO)[C@@H](O)[C@H](O)[C@H]1O (stereo not given in full)
C33A
  Potency: active: 1.12 µM
CAOV3
  Potency: inconclusive: 12.6 µM [cytotoxic, single point]
CASKI
  Potency: active: 6.31 µM
Es-2
  Potency: active: 3.55 µM
Hek293T
  Potency: active: 3.16 µM
JEG-3
  Potency: inconclusive: 12.6 µM [cytotoxic, single point]
OV90
  Potency: inconclusive: 10 µM [cytotoxic, single point]

## CC(C)=CCC[C@]1(C)C=Cc2c(O)c3c(c(CC=C(C)C)c2O1)O[C@]12C(=C[C@@H]4CC1C(C)(C)O[C@@]2(C/C=C(/C)C(=O)O)C4=O)C3=O
C33A
  Potency: active: 5.62 µM
CAOV3
  Potency: active: 3.16 µM
CASKI
  Potency: active: 2.24 µM
Es-2
  Potency: active: 3.16 µM
Hek293T
  Potency: active: 5.62 µM
JEG-3
  Potency: active: 3.98 µM
OV90
  Potency: active: 5.01 µM

## C/C=C(\C)C(=O)O[C@H]1CC2C(=C1C)[C@H]1OC(=O)[C@](C)(O)[C@]1(O)[C@H](OC(=O)CCC)C[C@@]2(C)OC(C)=O (stereo not given in full)
C33A
  Potency: inconclusive: 10 µM [cytotoxic, partial curve, poor fit]
CAOV3
  Potency: inconclusive: 12.6 µM [cytotoxic, single point]
CASKI
  Potency: inconclusive: 0.355 µM [cytotoxic, full curve, poor fit]
Es-2
  Potency: inconclusive: 1.41 µM [cytotoxic, full curve, poor fit]
HeLa
  Potency: inconclusive: 15.8 µM [cytotoxic, single point]
JEG-3
  Potency: inconclusive: 12.6 µM [cytotoxic, partial curve]
OV90
  Potency: inconclusive: 5.01 µM [cytotoxic, partial curve, poor fit]

## CC[C@H]1C[C@@H]2CC[C@@H](O2)[C@@H](C)C(=O)O[C@H](CC)C[C@H]2CC[C@H](O2)[C@H](C)C(=O)O[C@@H](C)C[C@@H]2CC[C@@H](O2)[C@@H](C)C(=O)O[C@H](CC)C[C@H]2CC[C@H](O2)[C@H](C)C(=O)O1
C33A
  Potency: active: 0.224 µM
CAOV3
  Potency: active: 0.398 µM
CASKI
  Potency: active: 0.447 µM
Es-2
  Potency: active: 0.501 µM
HeLa
  Potency: active: 0.562 µM
Hek293T
  Potency: active: 0.355 µM
OV90
  Potency: active: 0.0891 µM

## C[C@@H]1C[C@@H](O)[C@]2(O)O[C@@H]3C[C@@]4(C=O)C(CC[C@@H]5C4CC[C@]4(C)[C@@](O)(C6=CC(=O)OC6)CC[C@]54O)C[C@H]3OC2O1 (stereo not given in full)
C33A
  Potency: active: 2.82 µM
CAOV3
  Potency: inconclusive: 5.01 µM [cytotoxic, partial curve, poor fit]
CASKI
  Potency: inconclusive: 5.01 µM [cytotoxic, partial curve, poor fit]
Es-2
  Potency: active: 3.55 µM
Hek293T
  Potency: active: 3.16 µM
JEG-3
  Potency: inconclusive: 7.94 µM [cytotoxic, partial curve, poor fit]
OV90
  Potency: inconclusive: 10 µM [cytotoxic, single point]

## CC(=O)O[C@H]1C[C@@H](C)O[C@H]2O[C@@H]3CC4CC[C@@H]5C(CC[C@]6(C)[C@@H](C7=CC(=O)OC7)CC[C@]56O)[C@@]4(C=O)C[C@H]3O[C@]21O (stereo not given in full)
C33A
  Potency: active: 0.1 µM
CAOV3
  Potency: active: 0.282 µM
CASKI
  Potency: active: 0.562 µM
Es-2
  Potency: active: 0.126 µM
HeLa
  Potency: active: 0.126 µM
JEG-3
  Potency: inconclusive: 0.355 µM [cytotoxic, full curve, poor fit]

## CN[C@@H]1C[C@H]2O[C@@](C)([C@@H]1OC)n1c3ccccc3c3c4c(c5c6ccccc6n2c5c31)C(=O)NC4
C33A
  Potency: active: 1.26 µM
CAOV3
  Potency: inconclusive: 0.0794 µM [cytotoxic, full curve, poor fit]
CASKI
  Potency: active: 0.251 µM
Es-2
  Potency: active: 0.631 µM
Hek293T
  Potency: active: 4.47 µM
JEG-3
  Potency: inconclusive: 5.01 µM [cytotoxic, full curve, poor fit]
OV90
  Potency: active: 0.316 µM

## CC[C@@H]1C[C@H]2CC[C@H](O2)[C@H](C)C(=O)O[C@@H](C)C[C@@H]2CC[C@@H](O2)[C@@H](C)C(=O)O[C@H](C)C[C@H]2CC[C@H](O2)[C@H](C)C(=O)O[C@@H](C)C[C@@H]2CC[C@@H](O2)[C@@H](C)C(=O)O1
C33A
  Potency: inconclusive: 0.199 µM [cytotoxic, full curve, poor fit]
CAOV3
  Potency: active: 0.562 µM
CASKI
  Potency: active: 0.501 µM
Es-2
  Potency: active: 0.708 µM
HeLa
  Potency: active: 0.562 µM
Hek293T
  Potency: active: 0.282 µM
OV90
  Potency: active: 0.447 µM
